# Whole data set: some 33,000 sequences, median “E-score (-0.5 to 0.5)” near -0.01, cut for the highest 2% near 0.26. Some of the results follow.
# Biological target: Ste12 (UniProt P13574)
# Test: PBM E-score (8-mer binding enrichment) (E-score (-0.5 to 0.5)); higher = stronger / more preferred TF binding; most listed sequences are background and not binding sites
# Conditions: protein concentration: 200 nM; construct: GST-DNA-binding domain
# Outline: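 Universal all-10-mer Agilent arrays, fresh or stripped once, were converted to double-stranded form by primer extension. GST-tagged yeast transcription factors from PURExpress in vitro transcription/translation, full-length or DNA-binding domain only, were applied at about 100-200 nM and detected with fluorescent anti-GST. After masliner normalisation, the Universal PBM Analysis Suite scored each ungapped eight-base word together with its reverse complement by E-score.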
row,Sequence,PBM E-score
1,TACCGAGA,0.00779
2,AAGCCCCG,0.0304
3,AATTTGAC,0.0583
4,GACTCAGA,0.0539
5,ATTATAAA,0.232
6,CCTAGCGA,-0.317
7,GAGGTTGA,-0.0361
8,CGGTTAAA,0.0788
9,ACTGCATC,0.0193
10,CAGGCTTA,-0.0818
11,TCCGTAGA,-0.0981
12,TAAACCTA,0.0716
13,AGCGAACC,-0.133
14,AGGTCACT,-0.163
15,ACGGTAGG,-0.12
16,AGTGGAAC,-0.00784
17,CTGGGTAC,0.0125
18,AGGCTAGA,-0.214
19,CTGTCTGC,-0.23
20,CCTTCTAG,-0.24
21,ACCAGTAC,-0.11
22,ACTAGGCT,-0.0261
23,CACGCACC,-0.206
24,ACGGTTGG,-0.189
25,CTCAACCA,-0.0786

row,Sequence,PBM E-score
1,CGACCCCA,-0.0172
2,CGATAGCA,-0.0889
3,ATGATCTA,-0.0676
4,CTCATCAA,-0.0459
5,AGGGCGCC,-0.0555
6,CATACGGC,0.0599
7,GATATAGA,0.0812
8,AATCATCC,0.114
9,AAACCGTA,0.0285
10,ATTCGCTA,-0.176
11,CAGGCTCC,-0.0569
12,AACAAAAT,0.11
13,AACCTACC,0.213
14,AACCATCC,0.0272
15,AATGAACG,0.00852
16,AATACGAG,-0.0635
17,CTTCTTAC,-0.0494
18,AAAGCTGT,-0.0617
19,GCCAATAA,0.148
20,ACTAAGTC,-0.0994
21,TATAAAGA,0.0307
22,CCCGGCCC,-0.0346
23,ACTATCGC,-0.162
24,ACAGTCCG,-0.226
25,ACCCTATG,-0.126

row,Sequence,PBM E-score
1,CGTATTAA,0.00972
2,GCGGGGCC,0.144
3,CAGCCCAC,-0.0539
4,ACTCTCGA,-0.123
5,AGCTAGGG,-0.182
6,CGGCATTA,0.165
7,ATTGGGCC,-0.0142
8,CCCAGCGG,-0.192
9,ATATAATC,0.0782
10,AACCACGG,-0.0322
11,GCATGGCC,-0.114
12,GCCTTCCC,-0.0772
13,TCGTACGA,-0.0577
14,CATAGTTC,-0.00999
15,CGAACACC,-0.0456
16,CAATGGGG,-0.00218
17,CTGGGGGA,-0.112
18,CCGCTCTA,0.0783
19,AGGAGGAC,-0.381
20,ATGCGTAG,-0.0251
21,ACGATACT,0.0867
22,CCTGCATC,0.0487
23,AATGCCAG,-0.169
24,ATTATAGC,0.0322
25,CGGCGAGA,-0.167

row,Sequence,PBM E-score
1,ATGCCACC,-0.123
2,CTACATAC,0.0943
3,AGTACGAA,-0.0201
4,TAGTCGAA,-0.134
5,CAGTGGAC,-0.142
6,CGGAGCAG,-0.0602
7,ATGCCTCA,-0.0959
8,GCTGGCGA,-0.183
9,GTAGTAGA,-0.0701
10,CAACAACA,0.0763
11,CGCCAGCA,-0.175
12,TATATGCA,-0.0848
13,AATTGTGG,0.0282
14,ATAGTTAC,0.128
15,ACAGGTCG,-0.00175
16,AACCAACC,-0.0148
17,CACGTTAC,0.0456
18,CTTACTTA,0.0504
19,GGTGTAAA,0.17
20,CTACACTA,0.0659
21,ATTAATCG,0.273
22,GGCTCTGA,-0.0372
23,ATCACTTA,-0.0583
24,GTGGGGCA,0.22
25,CTGTAGGC,-0.0889

row,Sequence,PBM E-score
1,TCTCATCA,0.0267
2,ATTATCCA,0.0202
3,GGTTTCTA,0.147
4,CTGTGTTA,0.00985
5,CCGGCCAA,-0.0341
6,GATTTAAC,0.168
7,CTACGGCA,-0.173
8,GTCGTTCA,-0.031
9,GACATACC,-0.0747
10,ACACTCGG,-0.0306
11,GCTGGGAC,-0.0751
12,ATACACTG,-0.00096
13,GTATGAAC,-0.018
14,AATCACTG,0.146
15,GCACCCTA,-0.209
16,AATCCGTA,-0.215
17,AATCTTTC,0.13
18,CACGTCTA,-0.108
19,GGTTATAC,-0.145
20,CGGTGCGC,0.106
21,CACTGCTC,0.0119
22,CTATACAG,-0.121
23,CGCACGAG,-0.0916
24,AGTTCTTA,-0.116
25,AAGACACT,0.0756

row,Sequence,PBM E-score
1,AGGTCTGG,-0.228
2,ATATACCC,0.142
3,CGCGAGCG,0.00505
4,ATGAGAAT,0.023
5,TCAGATAA,0.0963
6,AGGCATCA,-0.261
7,CGAAGAGA,0.0185
8,ACGCCCAG,-0.0708
9,CGCCGACC,-0.229
10,CCGCACCC,0.222
11,AGGAAGCG,0.0486
12,ACGGACCT,-0.0369
13,GGCGGGCA,0.0526
14,AACAGTCC,-0.0507
15,AGATCGCA,-0.0394
16,AGTAGGAG,-0.119
17,GGGGTAAA,0.202
18,AGAAGGTG,0.159
19,CCGCTAGA,-0.165
20,GGGACTGA,-0.163
21,CTGGATGA,-0.103
22,AGAAAGCT,0.148
23,ATAGGGGC,0.02
24,GCAGTGGC,-0.0925
25,CACCAGTA,-0.19

row,Sequence,PBM E-score
1,CCGTGAGC,-0.281
2,ACCGTTCC,-0.0772
3,AGAGACGA,-0.0683
4,AATTATGT,0.0801
5,AAACGTCG,0.173
6,CCGAATCG,0.0364
7,AGACCACA,-0.0546
8,AGAAGAGC,-0.161
9,ACTACGCG,-0.159
10,GAACTGGC,-0.102
11,CGAGCATA,0.0338
12,GTAACTGA,-0.0708
13,CAAGGCTC,-0.348
14,CCCGTCCC,0.195
15,GTTGTGGA,0.0284
16,CGAAAAAC,0.0959
17,GGATGCAA,0.0505
18,AAGTGCCA,-0.0606
19,CGATCGTC,-0.0299
20,CCACAGTC,-0.163
21,CAGCGTAA,-0.016
22,AAACATAT,0.273

# Source: the supplement of paper PMC3334620
